We go through 41 molecules from ChEMBL document CHEMBL5606458, “ASAP - ZIKV NS2B-NS3 protease fluorescence single point” (2024).

The structures appear in SMILES notation. Screen size: about 2,700 compounds; about 160 (5.9%) showed an effect of 50% or more. This is one part of the list.

This test has as its target Nonstructural protein 3 (Zika virus) (UniProt A0A024AXB9).
The mark [1] stands for this setting: PRVABC59, Concentration 15.0 uM, Number of replicates 1.0.
Setting [2] is: PRVABC59, Concentration 50.0 uM, Number of replicates 1.0.
Where [3] appears, read: PRVABC59, Concentration 10.0 uM, Number of replicates 1.0.

UniProt A0A024AXB9, sequence (A0A024AXB9 as listed by the source): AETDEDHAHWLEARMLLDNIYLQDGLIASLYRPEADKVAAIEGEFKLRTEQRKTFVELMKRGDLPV

For the molecule `Cc1cc(CO)c2cccc(NC(=O)c3cc(C(F)F)nn3C)c2n1`, the inhibition (commonly the relative decrease from the control value, in per cent) came to 5.91% (PRVABC59, Concentration 49.95 uM, Number of replicates 2.0, Standard deviation 2.6796892104773047 %) and 18.1% (PRVABC59, Concentration 99.9 uM, Number of replicates 2.0, Standard deviation 1.6108242274041706 %).

On to `COc1cc2c(cc1NC(=O)c1cc(Cl)ccc1NS(=O)(=O)c1ccc(Oc3ccccc3Cl)cc1)oc1ccccc12`, for which the inhibition under setting [1] is 36.2%.

Take `NC(=O)c1ccc(CNC(=O)c2ccc(OCc3ccccc3)cc2)cc1`: the inhibition is, setting by setting: (PRVABC59, Concentration 49.5 uM, Number of replicates 2.0, Standard deviation 3.3276892513121745 %) 3.53%; (PRVABC59, Concentration 99.01 uM, Number of replicates 2.0, Standard deviation 3.432155778730429 %) 4.11%; (PRVABC59, Concentration 198.0 uM, Number of replicates 2.0, Standard deviation 2.352669831979398 %) 0.729%.

Consider `CC(C)(C)c1ccc(S(=O)(=O)N2CCN(C(=O)c3cc(Cl)ccc3NS(=O)(=O)c3ccc(Oc4ccccc4Cl)cc3)CC2)cc1`, for which, under setting [1], the inhibition is 14.3%.

As to `O=C(NCc1nc(CO)cs1)[C@]1(c2ccc(F)cc2)CCCNC1`, the inhibition is, setting by setting: (PRVABC59, Concentration 49.5 uM, Number of replicates 2.0, Standard deviation 1.2824455392848024 %) -0.834%; (PRVABC59, Concentration 99.01 uM, Number of replicates 2.0, Standard deviation 2.655568906249308 %) 0.218%; (PRVABC59, Concentration 198.0 uM, Number of replicates 2.0, Standard deviation 3.7333414571678256 %) 1.17%.

Consider `CC(C)[C@H](NC(=O)c1cc(Cl)ccc1NS(=O)(=O)c1ccc(Oc2ccccc2Cl)cc1)c1ccccn1`, for which the inhibition under setting [1] was 33.2%.

`Cc1cc(CO)c2cccc(Cc3cccc(C(=O)Nc4ccc(C(=O)O)o4)c3)c2n1`: the inhibition reads like this: (PRVABC59, Concentration 49.95 uM, Number of replicates 2.0, Standard deviation 1.1430744565328115 %) 9.19%; (PRVABC59, Concentration 99.9 uM, Number of replicates 2.0, Standard deviation 1.0434494218967008 %) 26.9%.

On to `COc1cccc(CC(=O)Nc2cccc(C(=O)O)c2)c1`, for which the inhibition is, setting by setting: (PRVABC59, Concentration 49.5 uM, Number of replicates 2.0, Standard deviation 3.65290432322533 %) -1.9%; (PRVABC59, Concentration 99.01 uM, Number of replicates 2.0, Standard deviation 2.0734382572705075 %) -1.79%; (PRVABC59, Concentration 198.0 uM, Number of replicates 2.0, Standard deviation 1.7973949441374963 %) 1.71%.

Regarding `CC(C)(CO)NC(=O)c1cc(Cl)cc(NC(=O)COc2cc(Cl)cc(Cl)c2)c1`, the inhibition (PRVABC59, Concentration 49.5 uM, Number of replicates 2.0, Standard deviation 2.8806463957016115 %) came to 4.68%; the inhibition (PRVABC59, Concentration 99.01 uM, Number of replicates 2.0, Standard deviation 2.1798936733965664 %) was found to be 5.69%; the inhibition (PRVABC59, Concentration 198.0 uM, Number of replicates 2.0, Standard deviation 1.4648393452800168 %) came out at 5.59%.

Consider `O=Cc1ccc(N2CCC(C(=O)N3CCCCC[C@H]3c3ccco3)CC2)cc1`, for which, under setting [2], the inhibition turned out to be 24.1%.

In the case of `CC(=O)N[C@@H](CCCCN)C(=O)Nc1cccc(Cc2cccc3c(CO)cc(C)nc23)c1`, the inhibition is -2.36% (PRVABC59, Concentration 49.95 uM, Number of replicates 2.0, Standard deviation 2.0664029156562504 %) and 13.4% (PRVABC59, Concentration 99.9 uM, Number of replicates 2.0, Standard deviation 2.3921411563999717 %).

`Cn1c(CO)nnc1[C@H]1CCCN(C(=O)c2cc(Cl)ccc2NS(=O)(=O)c2ccc(Oc3ccccc3Cl)cc2)C1`: the inhibition under setting [1] was 1.58%.

Turning to `C[C@@H](CNC(=O)c1ccn([C@H]2CCCNC2)n1)c1cccc(=O)[nH]1`, the inhibition is 0.214% (PRVABC59, Concentration 49.5 uM, Number of replicates 2.0, Standard deviation 3.4567757759943705 %); 1.08% (PRVABC59, Concentration 99.01 uM, Number of replicates 2.0, Standard deviation 2.531291505569599 %); 3.56% (PRVABC59, Concentration 198.0 uM, Number of replicates 2.0, Standard deviation 6.404841661420009 %).

Regarding `Cc1cccc(C)c1OC[C@H](C)NC(=O)C1CCN(c2ccc(C=O)cc2)CC1`, the inhibition under setting [2] stood at 12.2%.

On to `COc1cc(NC(=O)C2CCN(c3ccc(C=O)cc3)CC2)cc(OC)c1`, for which the inhibition under setting [2] is 28%.

In the case of `O=Cc1ccc(N2CCC(C(=O)NC[C@H](O)COc3ccccc3)CC2)cc1`, the inhibition under setting [2] was determined as 25.2%.

Take `O=C(c1cc(Cl)ccc1NS(=O)(=O)c1ccc(Oc2ccccc2Cl)cc1)N1CCN(c2ccnc3cc(Cl)ccc23)CC1`: the inhibition under setting [1] is 16.6%.

As for `C#CCN(Cc1ccc(C)cc1)C(=O)C1CCN(c2ccc(C=O)cc2)CC1`, the inhibition under setting [3] stood at 25.1%.

As to `O=Cc1ccc(N2CCC(C(=O)Nc3ccc(OCc4ccccn4)c(Cl)c3)CC2)cc1`, the inhibition under setting [2] came to 24.3%.

Turning to `COc1ccccc1N1CCN(C(=O)C2CCN(c3ccc(C=O)cc3)CC2)CC1`, the inhibition under setting [2] turned out to be 19.5%.

Regarding `CN(Cc1csc(-c2ccccc2)n1)C(=O)C1CCN(c2ccc(C=O)cc2)CC1`, the inhibition under setting [2] turned out to be 23.9%.

As to `O=C1Nc2c(Br)cccc2C[C@@]12CCCN2`, the inhibition is, setting by setting: (PRVABC59, Concentration 49.5 uM, Number of replicates 2.0, Standard deviation 1.738787201398763 %) -0.883%; (PRVABC59, Concentration 99.01 uM, Number of replicates 2.0, Standard deviation 0.670473109245803 %) -0.31%; (PRVABC59, Concentration 198.0 uM, Number of replicates 2.0, Standard deviation 1.300556324581161 %) 3%.

As for `O=C(NCCc1nc(-c2ccc(Cl)cc2)no1)c1cc(Cl)ccc1NS(=O)(=O)c1ccc(Oc2ccccc2Cl)cc1`, the inhibition under setting [1] turned out to be 20.2%.

For `COc1cc(CS(=O)(=O)CCCC(F)(F)F)nc(N2CCNCC2)n1`, the inhibition runs as follows: (PRVABC59, Concentration 49.5 uM, Number of replicates 2.0, Standard deviation 2.487167137463286 %) 1.65%; (PRVABC59, Concentration 99.01 uM, Number of replicates 2.0, Standard deviation 2.1684988514331613 %) 3.72%; (PRVABC59, Concentration 198.0 uM, Number of replicates 2.0, Standard deviation 2.4379419680893664 %) 6.21%.

For the molecule `C[C@@H](Cc1ccc(O)cc1)NC(=O)C1CCN(c2ccc(C=O)cc2)CC1`, under setting [2], the inhibition was found to be 24.3%.

On to `O=C(Nc1ccccc1OCC(F)(F)F)c1cc(Cl)ccc1NS(=O)(=O)c1ccc(Oc2ccccc2Cl)cc1`, for which the inhibition under setting [1] came out at 48.1%.

For the molecule `COc1ccc2ccccc2c1CCNC(=O)C1CCN(c2ccc(C=O)cc2)CC1`, under setting [2], the inhibition turned out to be 24.7%.

As to `O=Cc1ccc(N2CCC(C(=O)N[C@@H]3CCCN(Cc4ccccc4)C3)CC2)cc1`, the inhibition under setting [2] worked out at 23.2%.

As for `O=C(c1cc(Cl)ccc1NS(=O)(=O)c1ccc(Oc2ccccc2Cl)cc1)N1CCN(c2ccccc2O)CC1`, under setting [1], the inhibition is -1.02%.

For `O=Cc1ccc(N2CCC(C(=O)Nc3cncc(Br)c3)CC2)cc1`, the inhibition under setting [2] was 24.3%.

Turning to `COc1cc(F)c(CNC(=O)C2CCN(c3ccc(C=O)cc3)CC2)c(F)c1`, the inhibition under setting [3] was 12.5%.

Turning to `Cc1cc(CO)c2cccc(Cc3cccc(C(=O)N4CC[C@@H](O)C4)c3)c2n1`, the inhibition is, setting by setting: (PRVABC59, Concentration 49.95 uM, Number of replicates 2.0, Standard deviation 1.677907174542838 %) -9.27%; (PRVABC59, Concentration 99.9 uM, Number of replicates 2.0, Standard deviation 1.3580557527180275 %) -9.55%.

Take `CN(Cc1nc2ccccc2n1C)C(=O)c1cc(Cl)ccc1NS(=O)(=O)c1ccc(Oc2ccccc2Cl)cc1`: under setting [1], the inhibition was found to be 13%.

Turning to `COc1cc(CNC(=O)C2CCN(c3ccc(C=O)cc3)CC2)ccc1O`, the inhibition under setting [3] is 25.4%.

With `Cc1cnccc1NC(=O)c1cccn(CC(C)C)c1=O`, the inhibition was 1.09% (PRVABC59, Concentration 49.5 uM, Number of replicates 2.0, Standard deviation 0.2976335420448987 %); 0.585% (PRVABC59, Concentration 99.01 uM, Number of replicates 2.0, Standard deviation 1.0257428986345465 %); -1.05% (PRVABC59, Concentration 198.0 uM, Number of replicates 2.0, Standard deviation 0.8138681623593715 %).

Take `O=C(c1ccc2c(c1)B(O)OC2)N1CCN[C@H](c2ccc(Cl)cc2)C1`: the inhibition runs as follows: (PRVABC59, Concentration 49.5 uM, Number of replicates 2.0, Standard deviation 0.1657054768360982 %) -1.89%; (PRVABC59, Concentration 99.01 uM, Number of replicates 2.0, Standard deviation 0.8575259332425326 %) -0.309%; (PRVABC59, Concentration 198.0 uM, Number of replicates 2.0, Standard deviation 0.5861832581239415 %) 3.15%.

For `Cc1cc(CO)c2cccc(Cc3ccccc3C(=O)NCCN3CCOCC3)c2n1`, the inhibition (PRVABC59, Concentration 99.9 uM, Number of replicates 2.0, Standard deviation 0.9595535911248555 %) was -8.41%.

Regarding `Nc1ccc(-c2cccc3c2COB3O)cn1`, the inhibition (PRVABC59, Concentration 99.5 uM, Number of replicates 2.0, Standard deviation 1.8761276805996356 %) is -4.95%; the inhibition (PRVABC59, Concentration 198.0 uM, Number of replicates 2.0, Standard deviation 3.2865185238127927 %) is -4.86%; the inhibition (PRVABC59, Concentration 500.0 uM, Number of replicates 2.0, Standard deviation 6.545878292794741 %) was 1.91%.

For the molecule `O=C(NCCc1ccc(O)c(O)c1)c1cc(Cl)ccc1NS(=O)(=O)c1ccc(Oc2ccccc2Cl)cc1`, under setting [1], the inhibition was 45.1%.

With `COc1ccc2ccccc2c1CCNC(=O)c1cc(Cl)ccc1NS(=O)(=O)c1ccc(Oc2ccccc2Cl)cc1`, the inhibition under setting [1] was found to be 29.5%.

For the molecule `Cc1cc(CO)c2cccc(NC(=O)Cc3nnc(C)[nH]3)c2n1`, the inhibition (PRVABC59, Concentration 49.95 uM, Number of replicates 2.0, Standard deviation 2.3535096922296743 %) worked out at 9.35% and the inhibition (PRVABC59, Concentration 99.9 uM, Number of replicates 2.0, Standard deviation 3.1815030758395326 %) came out at 21.3%.
